The IC50 comes from the fitted curve, where viability falls to half of the control; a limit (>, <) means that the fit lies beyond the doses tested. AUC, from the same fit, is the share of area under the viability curve across the 256-fold dose range: 1 means no effect, lower means more sensitive. For part of these data: A top dose marked as inferred comes from the curve model; the source does not state it. For part of these data: Drugs with an entry number were screened twice under separate entries, and the two screens often disagree.
Legend:
Assay in all cases: Viability of human cancer cell lines after 72 h of drug (GDSC screen)
Thapsigargin = compound: C/C=C(/C)C(=O)O[C@H]1C(C)=C2[C@H]([C@@H]1OC(=O)CCCCCCC)[C@@](C)(OC(C)=O)C[C@H](OC(=O)CCC)[C@@]1(O)[C@H]2OC(=O)[C@@]1(C)O [Thapsigargin]; conditions: top dose 0.512 µM; top dose inferred
Description: (§1)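 Human cancer cell lines in 384-well plates, medium with 10% serum, drug for 72 h over a 256-fold dose range (nine 2-fold or five 4-fold steps up to the top dose). Adherent lines were fixed and stained with the nucleic acid dye Syto60, suspension lines read with resazurin; signal relative to control wells, capped at 0 and 100%. One two-parameter sigmoid per drug and line, fitted in a mixed model over all curves with the slope shared within a line.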

QL-X-138 = compound: C=CC(=O)Nc1cc(-n2c(=O)ccc3cnc4ccc(-c5cn[nH]c5)cc4c32)ccc1C [QL-X-138]; conditions: top dose 10.24 µM; top dose inferred
Description: as §1

GSK269962A = compound: CCn1c(-c2nonc2N)nc2cnc(Oc3cccc(NC(=O)c4ccc(OCCN5CCOCC5)cc4)c3)cc21 [GSK269962A]; conditions: top dose inferred
Description: as §1

MPS-1-IN-1 = compound: COc1cc(N2CCC(O)CC2)ccc1Nc1cc(Nc2ccccc2S(=O)(=O)C(C)C)c2cc[nH]c2n1 [MPS-1-IN-1]; conditions: top dose 20 µM; top dose inferred
Description: as §1

(5Z)-7-Oxozeaenol = compound: COc1cc(O)c2c(c1)/C=C/C[C@H](O)[C@H](O)C(=O)/C=C\C[C@H](C)OC2=O [(5Z)-7-Oxozeaenol]; conditions: top dose 10 µM; top dose inferred
Description: as §1

CP466722 = compound: COc1cc2ncnc(-n3nc(-c4ccccn4)nc3N)c2cc1OC [CP466722]; conditions: top dose 16 µM; top dose inferred
Description: as §1

Zibotentan = compound: COc1nc(C)cnc1NS(=O)(=O)c1cccnc1-c1ccc(-c2nnco2)cc1 [Zibotentan]; conditions: top dose 20 µM; top dose inferred
Description: as §1

ABT-888 = compound: C[C@]1(c2nc3c(C(N)=O)cccc3[nH]2)CCCN1 [ABT-888]; conditions: top dose 5 µM; top dose inferred
Description: as §1

CMK = compound: Cc1ccc(-c2c(C(=O)CCl)n(CCCO)c3ncnc(N)c23)cc1 [CMK]; conditions: top dose 4 µM; top dose inferred
Description: as §1

ABT-869 = compound: Cc1ccc(F)c(NC(=O)Nc2ccc(-c3cccc4[nH]nc(N)c34)cc2)c1 [ABT-869]; conditions: top dose 1.024 µM; top dose inferred
Description: as §1

CHIR-99021 = compound: Cc1cnc(-c2cnc(NCCNc3ccc(C#N)cn3)nc2-c2ccc(Cl)cc2Cl)[nH]1 [CHIR-99021]
Description: as §1

Cytarabine = compound: Nc1ccn([C@@H]2O[C@H](CO)[C@@H](O)[C@@H]2O)c(=O)n1 [Cytarabine]; conditions: top dose 2 µM
Description: as §1

KU-55933 = compound: O=c1cc(-c2cccc3c2Sc2ccccc2S3)oc(N2CCOCC2)c1 [KU-55933]; conditions: top dose 10 µM
Description: as §1

[1] = top dose 2.5 µM, screen: GDSC drug entry 127
[2] = top dose 5 µM, screen: GDSC drug entry 1192
[3] = top dose 2.56 µM, screen: GDSC drug entry 154
[4] = top dose 10 µM, screen: GDSC drug entry 1241, top dose inferred

Cell Line | AUC (Thapsigargin) | IC50 (Thapsigargin) [nM] | AUC (QL-X-138) | IC50 (QL-X-138) [nM] | AUC (GSK269962A; [1]) | IC50 (GSK269962A; [1]) [nM] | AUC (GSK269962A; [2]) | IC50 (GSK269962A; [2]) [nM] | AUC (MPS-1-IN-1) | IC50 (MPS-1-IN-1) [nM] | AUC ((5Z)-7-Oxozeaenol) | IC50 ((5Z)-7-Oxozeaenol) [nM] | AUC (CP466722) | IC50 (CP466722) [nM] | AUC (Zibotentan) | IC50 (Zibotentan) [nM] | AUC (ABT-888) | IC50 (ABT-888) [nM] | AUC (CMK) | IC50 (CMK) [nM] | AUC (ABT-869) | IC50 (ABT-869) [nM] | AUC (CHIR-99021; [3]) | IC50 (CHIR-99021; [3]) [nM] | AUC (CHIR-99021; [4]) | IC50 (CHIR-99021; [4]) [nM] | AUC (Cytarabine) | IC50 (Cytarabine) [nM] | AUC (KU-55933) | IC50 (KU-55933) [nM]
EW-18 (Ewing sarcoma, suspension) | 0.348 | 11.7 | 0.483 | 573 | 0.903 | > 2500 | 0.969 | > 5000 | 0.606 | 2490 | 0.838 | 7420 | 0.618 | 2160 | 0.959 | > 20000 | 0.972 | > 5000 | 0.978 | > 4000 | 0.962 | > 1020 | 0.985 | > 2560 | 0.984 | > 10000 | 0.929 | > 2000 | 0.897 | > 10000
EoL-1-cell (haematopoietic neoplasm, suspension) | 0.376 | 15.2 | 0.592 | 1110 | 0.962 | > 2500 | 0.48 | 277 | 0.781 | 7310 | 0.024 | < 39.1 | 0.592 | 1730 | 0.988 | > 20000 | 0.976 | > 5000 | 0.959 | > 4000 | 0.208 | 10.1 | 0.973 | > 2560 | 0.959 | > 10000 | 0.716 | 469 | 0.934 | > 10000
Farage (B-cell lymphoma, suspension) | 0.123 | 2.86 | 0.444 | 463 | 0.977 | > 2500 | 0.984 | > 5000 | 0.912 | 19700 | 0.848 | 5490 | 0.734 | 3980 | 0.922 | > 20000 | 0.99 | > 5000 | 0.768 | 1250 | 0.993 | > 1020 | 0.993 | > 2560 | 0.988 | > 10000 | 0.98 | > 2000 | 0.976 | > 10000
GB-1 (glioma, adherent) | 0.65 | 90.1 | 0.792 | 5560 | 0.978 | > 2500 | 0.847 | 4710 | 0.799 | 11700 | 0.712 | 2800 | 0.744 | 5750 | 0.931 | > 20000 | 0.947 | > 5000 | 0.838 | 3410 | 0.983 | > 1020 | 0.98 | > 2560 | 0.979 | > 10000 | 0.901 | > 2000 | 0.746 | 3650
GI-ME-N (neuroblastoma, adherent) | 0.352 | 10.7 | 0.513 | 702 | 0.38 | 64.5 | 0.412 | 164 | 0.785 | 12100 | 0.427 | 367 | 0.759 | 7580 | 0.973 | > 20000 | 0.969 | > 5000 | 0.784 | 2380 | 0.933 | > 1020 | 0.963 | > 2560 | 0.916 | > 10000 | 0.817 | 1680 | 0.963 | > 10000
GOTO (neuroblastoma, adherent) | 0.621 | 72.4 | 0.634 | 1580 | 0.96 | > 2500 | 0.929 | > 5000 | 0.886 | > 20000 | 0.703 | 2540 | 0.893 | > 16000 | 0.978 | > 20000 | 0.984 | > 5000 | 0.833 | 3080 | 0.974 | > 1020 | 0.983 | > 2560 | 0.868 | > 10000 | 0.683 | 439 | 0.88 | > 10000
GR-ST (lymphoblastic leukaemia, suspension) | 0.419 | 18.3 | 0.371 | 260 | 0.903 | > 2500 | 0.809 | 3300 | 0.79 | 11000 | 0.694 | 2480 | 0.699 | 4140 | 0.98 | > 20000 | 0.978 | > 5000 | 0.914 | > 4000 | 0.98 | > 1020 | 0.981 | > 2560 | 0.897 | > 10000 | 0.647 | 349 | 0.961 | > 10000
GT3TKB (stomach, adherent) | 0.373 | 15 | 0.886 | 9010 | 0.868 | 1830 | 0.757 | 1530 | 0.968 | > 20000 | 0.557 | 876 | 0.963 | > 16000 | 0.989 | > 20000 | 0.99 | > 5000 | 0.972 | > 4000 | 0.99 | > 1020 | 0.989 | > 2560 | 0.762 | 3180 | 0.707 | 440 | 0.901 | > 10000

Source: the supplement of paper PMC4967469
